The campaign covered roughly 410,000 compounds. About 5,000 (1.2%) were called active. The shares of active, inactive and inconclusive entries below differ from those in the screen. The call rests on the fitted dose curve; in most records, active means well fitted inhibition curve with a large enough effect; inconclusive means small, poorly fitted or top-dose-only effect; inactive means no such curve, though single readings can be large or run the other way. Where the call is inconclusive, the potency comes from a doubtful curve fit.
Experiment: qHTS for Inhibitors of TGF-b; further: nearly all actives have a fitted effect of over 65% in size
Settings: HepG2 CAGA-GFP TGF-b/SMAD3 reporter, GFP fluorescence, 18 h, TGF-beta stimulated, 500 pg/mL final; series mostly up to 46.1 µM; activity, negative = inhibition: at the top concentration
Outline: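 GFP signal (ex488/em500-530) from TGF-beta-stimulated HEPG2 CAGA-GFP cells, 500 pg/mL final, 18 h at 37 degrees C in DMEM plus 1% FBS, normalized to unstimulated and DMSO-stimulated controls.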
On the % scale 0 is the no-effect control and ±100 the full control effect; potency means the concentration at half of the fitted maximal effect; tags describe the fitted curve by direction and shape.

**Q.** For `COC(=O)N/N=C(\C)c1ccc(C)c([N+](=O)[O-])c1`, which “activity, negative = inhibition” value is on record?
**A.** inactive: -1.17%

**Q.** With `Cc1ccc(NC(=O)c2sc3nc[nH]c(=O)c3c2C)cc1Cl` as the compound, how does the “activity, negative = inhibition” value read?
**A.** inactive: -26.4%

**Q.** For `CCCn1c(N)c(Sc2ccccc2)c(=O)n(CCC)c1=O`, which “activity, negative = inhibition” value is on record?
**A.** inactive: -0.271%

**Q.** With `Cc1ccc(S(=O)(=O)Nc2ccc(-c3csc(-c4ccccc4)n3)cc2)cc1` as the compound, how does the Potency read?
**A.** inconclusive: 15.8 µM [inhibitor, single point]

**Q.** Which Potency does the source give for `CCn1cc(C(=O)NCCc2ccc(OC)c(OC)c2)c(=O)c2cc(S(=O)(=O)N3CCC(C)CC3)ccc21` here?
**A.** inconclusive: 17.8 µM [inhibitor, single point]

**Q.** Which Potency does the source give for `CNCCCCOc1ccc(C(C)(C)C)cc1Cl` here?
**A.** inconclusive: 35.5 µM [inhibitor, single point]

**Q.** Which “activity, negative = inhibition” value does the source give for `COc1ccc(S(=O)(=O)Nc2cccc3c2O[C@H](CN(C)Cc2ccccc2)[C@@H](C)CN([C@H](C)CO)C3=O)cc1` here?
**A.** inactive: -3.5%

**Q.** Which Potency does the source give for `O=C(Nc1nc(-c2ccc(F)cc2)cs1)c1cccc(N2C(=O)CCC2=O)c1` here?
**A.** inconclusive: 35.5 µM [inhibitor, single point]

**Q.** Which Potency does the source give for `COc1ccc(Cl)cc1NC(=O)Cn1nc(Cc2ccncc2)c2ccccc2c1=O` here?
**A.** inconclusive: 20 µM [inhibitor, single point]

**Q.** With `C=CCn1c(SC(C)C(N)=O)nc2sc(CC)cc2c1=O` (stereo not given) as the compound, how does the “activity, negative = inhibition” value read?
**A.** inactive: -0.694%

**Q.** Which Potency does the source give for `CCc1ccccc1NC(=O)C1CCN(C(=O)N2CC(C)Oc3ccc(Cl)cc32)CC1` (stereo not given) here?
**A.** inconclusive: 35.5 µM [inhibitor, partial curve, poor fit]

**Q.** With `O=C(N/N=C/c1ccc[nH]1)c1cc(-c2ccc(Cl)cc2)nc2ccccc12` as the compound, how does the “activity, negative = inhibition” value read?
**A.** inactive: -18.4%

**Q.** Which Potency does the source give for `COc1ccc(CNc2oc(Cc3cccc4ccccc34)nc2C#N)cc1` here?
**A.** inconclusive: 31.6 µM [inhibitor, single point]

**Q.** With `O=C(CSc1c[nH]c2ccccc12)N1CCCc2ccccc21` as the compound, how does the Potency read?
**A.** inconclusive: 14.1 µM [inhibitor, single point]

**Q.** With `CCN(C(=O)COC(=O)c1cc(-c2cccs2)nc2ccccc12)C1CCS(=O)(=O)C1` (stereo not given) as the compound, how does the “activity, negative = inhibition” value read?
**A.** inactive: 1.92%

**Q.** With `COc1ccccc1C(=O)COC(=O)COc1ccc(C#N)cc1` as the compound, how does the Potency read?
**A.** inconclusive: 35.5 µM [inhibitor, single point]

**Q.** Which Potency does the source give for `CSc1ccccc1NC(=O)C1(C)CCN1C(=O)Cc1ccc(-c2ccccc2)cc1` (stereo not given) here?
**A.** inconclusive: 20 µM [inhibitor, single point]

**Q.** With `C[C@H](CO)N1C[C@H](C)[C@@H](CN(C)C(=O)c2cc(-c3ccccc3)on2)OCc2cn(nn2)CCCC1=O` as the compound, how does the “activity, negative = inhibition” value read?
**A.** inactive: 1.54%

**Q.** With `CC(C)=NNc1cc([N+](=O)[O-])cc2c1C(=O)N(C)S2=O` (stereo not given) as the compound, how does the “activity, negative = inhibition” value read?
**A.** inactive: 7.39%

**Q.** Which Potency does the source give for `CCc1ccc2nc(SCC(=O)Nc3ccccc3N3CCOCC3)c(C#N)cc2c1` here?
**A.** inconclusive: 6.31 µM [inhibitor, single point]

**Q.** For `O=C(NC(c1ccc(F)cc1)c1ccc2ccccc2n1)C1CCN(Cc2ccc3ccccc3n2)CC1` (stereo not given), which Potency is on record?
**A.** active: 12.6 µM

**Q.** With `O=C(Nc1ccc(F)cc1)c1ccccc1S(=O)(=O)c1ccccc1[N+](=O)[O-]` as the compound, how does the Potency read?
**A.** inconclusive: 6.31 µM [inhibitor, single point]

**Q.** For `CCNc1nc(N)nc(Oc2ccc(OCc3ccccc3)nn2)n1`, which Potency is on record?
**A.** inconclusive: 10 µM [inhibitor, single point]

**Q.** Which Potency does the source give for `O=S(=O)(CCSc1ccccn1)c1nc2ccccc2s1` here?
**A.** active: 8.91 µM

**Q.** With `Cc1ccc(Nc2nc(CSc3nnc(-c4ccc(F)cc4)n3C)cs2)cc1` as the compound, how does the Potency read?
**A.** inconclusive: 35.5 µM [inhibitor, single point]

**Q.** Which Potency does the source give for `O=C(COc1ccccc1F)Nc1nc(-c2ccccn2)cs1` here?
**A.** inconclusive: 1.58 µM [inhibitor, partial curve, poor fit]

**Q.** With `O=C(CSc1nnc(-c2ccco2)o1)NCC(=O)c1ccccc1` as the compound, how does the Potency read?
**A.** inconclusive: 35.5 µM [inhibitor, single point]

**Q.** For `CCCn1c(C)cs/c1=N\C(=S)Nc1ccccc1`, which Potency is on record?
**A.** inconclusive: 3.98 µM [inhibitor, single point]

**Q.** With `Cc1cccc(-c2nc(CSCC(=O)NCCc3ccc(Cl)cc3)c(C)o2)c1` as the compound, how does the Potency read?
**A.** active: 12.6 µM

**Q.** Which Potency does the source give for `CSc1ccc(CN(C)C(=O)C(c2ccccc2)c2ccccc2)cc1` here?
**A.** inconclusive: 14.1 µM [inhibitor, single point]

**Q.** With `Cc1cc(C)c(S(=O)(=O)N2CCN(C(=O)c3ccc(-n4nc(C)c(Cl)c4C)cc3)CC2)c(C)c1` as the compound, how does the Potency read?
**A.** inconclusive: 10 µM [inhibitor, partial curve]

**Q.** Which Potency does the source give for `CCOC(=O)COc1ccc(Br)cc1/C=C1\SC(N)=NC1=O` here?
**A.** inconclusive: 15.8 µM [inhibitor, single point]

**Q.** Which “activity, negative = inhibition” value does the source give for `COc1cc(NC(=O)c2nc3ccccc3nc2N2CCCCC2)cc(OC)c1OC` here?
**A.** inactive: 27.2%

**Q.** Which “activity, negative = inhibition” value does the source give for `CC(=O)Nc1cccc(/C(C)=N/NC(=O)c2ccc(Cl)cc2Cl)c1` here?
**A.** inactive: -14.9%

**Q.** With `O=[N+]([O-])c1cccnc1S(=O)(=O)c1ccccc1` as the compound, how does the Potency read?
**A.** active: 11.2 µM

**Q.** With `O=C(CSc1nc(-c2ccc(F)cc2)[nH]c1-c1ccccc1)Nc1ccccc1` as the compound, how does the Potency read?
**A.** inconclusive: 17.8 µM [inhibitor, single point]

**Q.** With `CCc1ccc(-c2nn(CC(=O)Nc3ccccc3C)c3c2cnc2ccc(C)cc23)cc1` as the compound, how does the “activity, negative = inhibition” value read?
**A.** inactive: 1.8%

**Q.** Which Potency does the source give for `Clc1ccc(OCc2nc3ccccc3n2Cc2ccccc2)c(Cl)c1` here?
**A.** inconclusive: 12.6 µM [inhibitor, single point]

**Q.** Which Potency does the source give for `O=[N+]([O-])c1ccc(COc2ccc(-c3[nH]ncc3-c3ccc(Cl)cc3)c(O)c2)cc1` here?
**A.** inconclusive: 35.5 µM [inhibitor, single point]

**Q.** With `CC(=O)Nc1ccc(NC(=O)C2(C)Cc3c(-c4ccccc4)ccnc3O2)cc1` (stereo not given) as the compound, how does the “activity, negative = inhibition” value read?
**A.** inactive: 13.6%

**Q.** With `CC(C)c1ccccc1NC(=S)NCC1(N(C)C)CCCCC1` as the compound, how does the “activity, negative = inhibition” value read?
**A.** inactive: 7.29%

**Q.** With `CC(C)(C)c1ccc(C(=O)NCC2CCCN2S(=O)(=O)c2ccccc2)cc1` (stereo not given) as the compound, how does the “activity, negative = inhibition” value read?
**A.** inactive: -18.4%

**Q.** For `CNc1oc(-c2ccc(F)cc2)nc1S(=O)(=O)c1ccccc1`, which “activity, negative = inhibition” value is on record?
**A.** inactive: -5.08%

**Q.** For `Cc1cccc2sc(N(CCCN(C)C)C(=O)CN3C(=O)c4ccccc4C3=O)nc12`, which “activity, negative = inhibition” value is on record?
**A.** inactive: -16.9%

**Q.** With `Cn1nnnc1SCc1cc(=O)[nH]c2ccccc12` as the compound, how does the Potency read?
**A.** inconclusive: 5.62 µM [inhibitor, single point]

**Q.** Which Potency does the source give for `O=S(=O)(Nc1ncccc1O)c1ccc(Cl)cc1` here?
**A.** inconclusive: 2 µM [inhibitor, partial curve]

**Q.** Which Potency does the source give for `Cc1ccc(OCCCCNC(C)c2ccccc2)c(C)c1` (stereo not given) here?
**A.** inconclusive: 35.5 µM [inhibitor, single point]

**Q.** With `COc1cc(NC(=O)N2CCC3(CC2)Nc2cc(F)ccc2-n2cccc23)cc(OC)c1OC` as the compound, how does the Potency read?
**A.** inconclusive: 20 µM [inhibitor, single point]

**Q.** Which “activity, negative = inhibition” value does the source give for `CCOc1ccc(S(=O)(=O)NCCC(=O)OCC(=O)NC(=O)c2cccn2C)cc1` here?
**A.** inactive: 1.19%

**Q.** Which Potency does the source give for `Cc1ccc2c(c1)-c1[nH]c(=S)ncc1CS2` here?
**A.** inconclusive: 35.5 µM [inhibitor, single point]

**Q.** For `CC(=O)Nc1cccc(-c2csc(C(O)c3ccccc3)n2)c1` (stereo not given), which “activity, negative = inhibition” value is on record?
**A.** inactive: -0.691%

**Q.** Which Potency does the source give for `CCC1CCc2sc(C(=O)NCC(c3ccc(OC)cc3)N3CCCC3)cc2C1` (stereo not given) here?
**A.** inconclusive: 28.2 µM [inhibitor, partial curve, poor fit]

**Q.** With `N#C/C(=C/c1cn(Cc2ccccc2Cl)c2ccccc12)C(=O)Nc1cccc(Cl)c1` as the compound, how does the Potency read?
**A.** inconclusive: 35.5 µM [inhibitor, partial curve, poor fit]

**Q.** For `Cc1cccn2c(=O)c(C=O)c(N3CCN(c4ccccc4)CC3)nc12`, which Potency is on record?
**A.** inconclusive: 35.5 µM [inhibitor, single point]

**Q.** For `Cc1cccc(OCC(O)Cn2c(=N)n(CCN3CCCCC3)c3ccccc32)c1` (stereo not given), which Potency is on record?
**A.** inconclusive: 25.1 µM [inhibitor, single point]

**Q.** Which Potency does the source give for `CCn1cc(C(=O)NCc2ccc(C)cc2)c(=O)c2cc(S(=O)(=O)N(C)C3CCCCC3)ccc21` here?
**A.** inconclusive: 12.6 µM [inhibitor, single point]

**Q.** Which Potency does the source give for `CCN(CC)c1nc2c(S(=O)(=O)c3cccc(Cl)c3)nnn2c2ccsc12` here?
**A.** inconclusive: 0.224 µM [inhibitor, full curve]

**Q.** With `CCn1c2ccccc2c2cc(CNCCCN3CCOCC3)ccc21` as the compound, how does the Potency read?
**A.** inconclusive: 35.5 µM [inhibitor, single point]

**Q.** Which “activity, negative = inhibition” value does the source give for `COc1ccc(/C=N/NC(=O)c2[nH]c3ccc(Br)cc3c2-c2ccccc2)c(C(=O)O)c1OC` here?
**A.** inactive: -28%

**Q.** For `O=[N+]([O-])c1ccc(CSc2nnc(SCc3ccc(Cl)cc3)s2)cc1`, which Potency is on record?
**A.** inconclusive: 11.2 µM [inhibitor, single point]

**Q.** With `CC1=C(C(=O)Nc2ccccc2)C(c2ccncc2)n2nc(SCc3ccccc3F)nc2N1` (stereo not given) as the compound, how does the “activity, negative = inhibition” value read?
**A.** inactive: 23%

**Q.** For `CN(C)S(=O)(=O)c1ccc(Cl)c(NC(=O)CN2CCN(Cc3ccc4c(c3)OCO4)CC2)c1`, which Potency is on record?
**A.** inconclusive: 1 µM [inhibitor, full curve]

**Q.** For `CCC(C)Nc1oc(-c2ccc(COc3ccc(Cl)cc3)o2)nc1C#N` (stereo not given), which Potency is on record?
**A.** inconclusive: 3.55 µM [inhibitor, single point]

**Q.** For `CCCCCCCCCC[N+](C)(C)CC/C=C1/c2ccccc2Sc2ccc(Cl)cc21`, which Potency is on record?
**A.** inconclusive: 22.4 µM [inhibitor, single point]

**Q.** For `CCOc1ccc(C(=O)Nc2c3c(nn2-c2cccc(Cl)c2)CS(=O)C3)cc1` (stereo not given), which Potency is on record?
**A.** inconclusive: 6.31 µM [inhibitor, single point]

**Q.** With `Cn1cc(/C=C/c2ccc3ccccc3n2)c2ccccc21` as the compound, how does the Potency read?
**A.** inconclusive: 7.94 µM [inhibitor, partial curve]

**Q.** For `CN(C)c1ccc(S(=O)(=O)N(C)C)cc1NC(=O)Cc1cccc2ccccc12`, which “activity, negative = inhibition” value is on record?
**A.** inactive: -1.71%

**Q.** Which Potency does the source give for `Clc1cccc(CNc2ccn3nc(-c4ccc(OCCN5CCOCC5)cc4)cc3n2)c1` here?
**A.** active: 11.2 µM

**Q.** For `COc1ccc(CNC(=O)Cn2nc(N3CCN(c4ccccc4)CC3)ccc2=O)c(OC)c1`, which “activity, negative = inhibition” value is on record?
**A.** inactive: -18.6%

**Q.** Which “activity, negative = inhibition” value does the source give for `Cc1ncc(C23CC4CC(CC(C4)C2)C3)[nH]1` here?
**A.** inactive: 2.87%

Source: PubChem BioAssay AID588855 (National Center for Advancing Translational Sciences (NCATS), 2011)
